{"source": "PubChem BioAssay AID504339", "about": "(National Center for Advancing Translational Sciences (NCATS), 2011)", "note": "The whole screen tested about 390,000 compounds, of which about 17,000 (4.4%) were called active. Inconclusive means that the source gave no clear call. Such entries were picked first, then a sample of the others. Calls follow the shape of the dose curve; as a rule, active = well fitted inhibition curve with a large enough effect; inconclusive = small, poorly fitted or top-dose-only effect; inactive = no such curve, though single readings can be large or run the other way. A potency beside an inconclusive call is a rough fit, not a confirmed value."}
{"molecular_target": "Lysine-specific demethylase 4A (Homo sapiens) (UniProt O75164)", "sequence (O75164 whole entry, looked up, the tested form may be a part)": "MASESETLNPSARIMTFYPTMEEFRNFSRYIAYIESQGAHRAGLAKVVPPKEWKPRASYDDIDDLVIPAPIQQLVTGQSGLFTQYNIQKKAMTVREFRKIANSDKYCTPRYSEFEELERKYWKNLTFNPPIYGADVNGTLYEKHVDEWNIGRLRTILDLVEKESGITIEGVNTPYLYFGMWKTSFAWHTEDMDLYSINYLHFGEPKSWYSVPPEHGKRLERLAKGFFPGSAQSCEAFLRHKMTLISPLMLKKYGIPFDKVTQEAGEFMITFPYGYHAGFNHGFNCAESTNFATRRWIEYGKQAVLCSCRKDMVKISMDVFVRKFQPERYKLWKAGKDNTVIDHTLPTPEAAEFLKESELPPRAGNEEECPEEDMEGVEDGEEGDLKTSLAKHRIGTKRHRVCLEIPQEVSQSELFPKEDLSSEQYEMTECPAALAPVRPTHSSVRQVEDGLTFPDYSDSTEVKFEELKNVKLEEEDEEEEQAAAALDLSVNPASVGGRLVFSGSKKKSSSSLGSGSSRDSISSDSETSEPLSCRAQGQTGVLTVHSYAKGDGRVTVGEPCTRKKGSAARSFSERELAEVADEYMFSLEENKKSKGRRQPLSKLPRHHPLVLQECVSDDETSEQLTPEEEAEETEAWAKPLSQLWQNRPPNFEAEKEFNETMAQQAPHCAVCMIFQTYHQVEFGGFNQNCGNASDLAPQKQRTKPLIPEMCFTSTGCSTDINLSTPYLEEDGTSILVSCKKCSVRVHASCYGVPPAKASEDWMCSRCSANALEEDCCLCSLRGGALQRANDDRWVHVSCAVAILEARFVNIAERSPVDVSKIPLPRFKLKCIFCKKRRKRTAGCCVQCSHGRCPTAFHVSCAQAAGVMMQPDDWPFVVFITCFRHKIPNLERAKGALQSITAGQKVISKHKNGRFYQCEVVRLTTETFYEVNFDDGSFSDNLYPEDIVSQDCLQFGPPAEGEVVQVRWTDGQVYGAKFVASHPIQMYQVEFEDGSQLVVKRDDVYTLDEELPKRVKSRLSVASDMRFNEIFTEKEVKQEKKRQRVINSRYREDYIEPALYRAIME", "experiment": "qHTS Assay for Inhibitors of JMJD2A-Tudor Domain; also: nearly all actives have a fitted effect of over 50% in size; also: potency is read from the fitted curve at half-maximal effect; tags tell the direction and shape of the fitted curve; as to activity change, negative = inhibition: % is scaled to controls: 0 for no effect and ±100 for the full control effect", "conditions": "AlphaScreen JMJD2A-Tudor / H3K4me3 peptide binding; activity change, negative = inhibition: at 114 µM (top of the series)"}
{"compound": "COc1ccc(Br)cc1C1C(C(=O)Nc2ccc(C)cc2C)=C(C)Nc2ncnn21", "note": "(stereo not drawn)", "activity change, negative = inhibition": "inactive: -15.4%"}
{"compound": "COc1ccc(N2CCN(c3oc(Cc4cccc5ccccc45)nc3C#N)CC2)cc1", "Potency": "inconclusive: 5.62 µM [inhibitor, partial curve]"}
{"compound": "CCCc1nc2ccccc2n1C(=S)SC", "Potency": "inconclusive: 28.2 µM [inhibitor, partial curve]"}
{"compound": "CCn1c(SCC(=O)Nc2cc(C)on2)nc2c(c1=O)SCC2", "activity change, negative = inhibition": "inactive: -21.9%"}
{"compound": "CC(C)C(=O)Nc1nnc2n1CCS2", "Potency": "active: 31.6 µM"}
{"compound": "CCCCC1=CC2=CC(=O)C(C)(OC(=O)c3cccs3)C(=O)C2=CO1", "note": "(stereo not drawn)", "Potency": "inconclusive: 56.2 µM [inhibitor, partial curve]"}
{"compound": "O=C(O)c1ccccc1-c1ccc(/C=c2\\sc3nc4cc(Br)cnc4n3c2=O)o1", "Potency": "active: 3.16 µM"}
{"compound": "Oc1ccc(C[C@@H]2CNCCN2CCc2cccc3ccccc23)cc1", "Potency": "inconclusive: 56.2 µM [inhibitor, partial curve]"}
{"compound": "Cc1nc(Nc2ccc(O)cc2)c2c3c(sc2n1)CCCC3", "Potency": "inconclusive: 15.8 µM [inhibitor, full curve]"}
{"compound": "CN(C)c1ccc(C(CNS(=O)(=O)c2cccc([N+](=O)[O-])c2)N2CCOCC2)cc1", "note": "(stereo not drawn)", "Potency": "inconclusive: 28.2 µM [inhibitor, full curve, poor fit]"}
{"compound": "CCN(CC)c1ccc2nc3ccccc3[n+](CC)c2c1", "Potency": "inconclusive: 15.8 µM [inhibitor, full curve]"}
{"compound": "Cc1cc2c(cc1S(=O)(=O)CCC(=O)N1CCC(C)CC1)OCC(=O)N2", "activity change, negative = inhibition": "inactive: -7.24%"}
{"compound": "CC(C)C(NC(=O)/C(=C/c1ccco1)NC(=O)c1ccc(Br)o1)C(=O)O", "note": "(stereo not drawn)", "Potency": "inconclusive: 79.4 µM [inhibitor, partial curve]"}
{"compound": "CC(OC(=O)c1ccccc1Oc1ccccc1)C(=O)NC1CC1", "note": "(stereo not drawn)", "activity change, negative = inhibition": "inactive: -21.3%"}
{"compound": "CC(C)=CCC/C(C)=C/CNC(=O)C[C@H]1C[C@H](C(=O)N2CCCCC2)[C@@]2(C)c3[nH]c4cc(-c5ccco5)ccc4c3CCN2C1=O", "Potency": "inconclusive: 31.6 µM [inhibitor, partial curve]"}
{"compound": "CCCn1nc(C(=O)Nc2cc(OCC)c(N3CCOCC3)cc2OCC)c2ccccc2c1=O", "Potency": "inconclusive: 3.98 µM [inhibitor, full curve, poor fit]"}
{"compound": "Cc1ccc(Nc2nc3nonc3nc2Nc2cccc(C(F)(F)F)c2)cc1Cl", "Potency": "inconclusive: 20 µM [inhibitor, full curve]"}
{"compound": "COc1cccc(OCC(O)CN2CCN(c3ncccn3)CC2)c1", "note": "(stereo not drawn)", "activity change, negative = inhibition": "inactive: 2.86%"}
{"compound": "Cc1noc(C)c1COC(=O)CCCc1c[nH]c2ccccc12", "Potency": "inconclusive: 56.2 µM [inhibitor, partial curve, poor fit]"}
{"compound": "COc1ccc(C2NC(=S)NC3=C2CCCC3=C2SCCS2)cc1", "note": "(stereo not drawn)", "activity change, negative = inhibition": "inactive: -27.1%"}
{"compound": "CS(=O)(=O)c1ccc(C(=O)NNC(=O)c2ccccc2-n2cccc2)cc1", "activity change, negative = inhibition": "inactive: -3.04%"}
{"compound": "COc1ccccc1-c1nn2c(-c3ccco3)nnc2s1", "Potency": "inconclusive: 22.4 µM [inhibitor, full curve]"}
{"compound": "CC1CCN(C(=S)c2cn(Cc3ccccc3F)c3ccccc23)CC1", "Potency": "inconclusive: 56.2 µM [inhibitor, partial curve]"}
{"compound": "COc1ccccc1N1CCN(c2nccc(C)n2)CC1", "activity change, negative = inhibition": "inactive: -15.9%"}
{"compound": "O=C(Nc1ccccc1[N+](=O)[O-])c1nc[nH]c1C(=O)NCCO", "Potency": "inconclusive: 2.82 µM [inhibitor, full curve, poor fit]"}
{"compound": "CS/C(=N\\S(=O)(=O)c1ccc(N)cc1)NS(=O)(=O)c1cccs1", "Potency": "active: 89.1 µM"}
{"compound": "Cc1ccc(N/C(=C\\C(=O)c2ccccc2)C(=O)O)cc1", "activity change, negative = inhibition": "inconclusive: -64.9% [inhibitor]"}
{"compound": "O=c1cc(-c2ccccc2)[nH]n1-c1nc2ccccc2[nH]1", "Potency": "active: 56.2 µM"}
{"compound": "COC(=O)c1ccc(Cl)cc1NC(=O)N1CC2CCCN2c2ccccc21", "note": "(stereo not drawn)", "Potency": "inconclusive: 44.7 µM [inhibitor, partial curve]"}
{"compound": "O=c1cc(CN2CCN(c3ccc(O)cc3)CC2)nc2scc(-c3ccccc3)n12", "activity change, negative = inhibition": "inactive: -35%"}
{"compound": "Cc1ccc(NC(=O)/C=C/c2ccco2)nc1", "Potency": "inconclusive: 44.7 µM [inhibitor, single point]"}
{"compound": "COc1ccc(NC(=O)CN2C(=O)CCn3nc(-c4cccn4C)cc32)cc1", "Potency": "inconclusive: 50.1 µM [inhibitor, partial curve]"}
{"compound": "COc1ccc2c(c1)c(=O)oc1c(C)c(OC(C)C(=O)N[C@@H](Cc3c[nH]c4ccc(O)cc34)C(=O)O)ccc12", "note": "(stereo partly drawn)", "Potency": "inconclusive: 50.1 µM [inhibitor, partial curve]"}
{"compound": "Cc1cccc(NS(=O)(=O)c2ccc(C)c(C(=O)NNC(=O)c3csc(N4CCOCC4)n3)c2)c1", "activity change, negative = inhibition": "inactive: -23.5%"}
{"compound": "NC(N)=N/N=C(\\N=Nc1ccccc1)c1cccc2cccnc12", "Potency": "inconclusive: 63.1 µM [inhibitor, partial curve, poor fit]"}
{"compound": "CC(=O)c1ccc2c(c1)CCN2", "activity change, negative = inhibition": "inactive: -15.3%"}
{"compound": "COc1cc(SC)ccc1C(=O)Nc1ccc(S(=O)(=O)Nc2nccc(C)n2)cc1", "Potency": "inconclusive: 89.1 µM [inhibitor, single point]"}
{"compound": "COc1ccc(CN(C)C(=O)CSc2nnc(C3CC3)n2C2CC2)cc1", "activity change, negative = inhibition": "inactive: -2.07%"}
{"compound": "COc1c(O)cc2oc(-c3ccc(O)c(O)c3)cc(=O)c2c1O", "Potency": "active: 31.6 µM"}
{"compound": "COc1cccc(-c2csc(NC(=O)Oc3ccccc3)n2)c1", "Potency": "active: 89.1 µM"}
{"compound": "Cc1cccc(NC(=O)Cn2nnc(-c3nc(-c4ccncc4)no3)c2N)c1", "Potency": "inconclusive: 56.2 µM [inhibitor, partial curve]"}
{"compound": "CC(=O)Nc1cc2c(=O)n(Cc3ccccc3)c(C)nc2cc1N1CCOCC1", "activity change, negative = inhibition": "inactive: -17%"}
{"compound": "CCCN1C2CCCC1CC(NC(=S)Nc1cccc(C)c1)C2", "note": "(stereo not drawn)", "activity change, negative = inhibition": "inactive: 2.4%"}
{"compound": "Cc1cc(O)c(C(C)C)cc1NC(=S)Nc1cc(C(C)C)c(O)cc1C", "Potency": "inconclusive: 39.8 µM [inhibitor, partial curve]"}
{"compound": "COc1ccc(NC(=O)CN2C(=O)CCn3nc(-c4cccn4C)cc32)cc1Cl", "Potency": "inconclusive: 44.7 µM [inhibitor, partial curve]"}
{"compound": "C=CCn1c(O)c(N=NC(=S)Nc2ccc(OC)c(Cl)c2)c2ccccc21", "Potency": "inconclusive: 35.5 µM [inhibitor, partial curve]"}
{"compound": "Cc1ccc2c(c1)c1nnc(SCC(=O)Nc3ccccc3C(F)(F)F)nc1n2CC(=O)O", "activity change, negative = inhibition": "inactive: -5.26% [at 57.1 µM]"}
{"compound": "O=C(N/N=C/c1ccccn1)NC12CC3CC(CC(C3)C1)C2", "Potency": "inconclusive: 44.7 µM [inhibitor, partial curve]"}
{"compound": "COc1cccc(-c2sc3ccc(OC)cc3c2-c2ccc(OCCN(C)C)cc2)c1", "Potency": "active: 28.2 µM"}
{"compound": "CCCN1CCN(c2ncnc3sc(C(=O)Nc4ccc(C(C)C)cc4)c(C)c23)CC1", "Potency": "inconclusive: 56.2 µM [inhibitor, partial curve, poor fit]"}
{"compound": "Fc1cccc(-c2n[nH]c(=S)n2-c2ccccc2)c1", "Potency": "active: 7.94 µM"}
{"compound": "O=C(N/N=C\\c1cccs1)c1sccc1-n1cccc1", "activity change, negative = inhibition": "inactive: -31.2%"}
{"compound": "Cc1ccc2c(c1)sc1nc(=O)ccn12", "Potency": "inconclusive: 14.1 µM [inhibitor, full curve, poor fit]"}
{"compound": "C[C@H]1CN([C@@H](C)CO)C(=O)c2cc(NS(=O)(=O)c3ccc(Cl)cc3)ccc2O[C@@H]1CN(C)CC1CCCCC1", "Potency": "inconclusive: 44.7 µM [inhibitor, partial curve]"}
{"compound": "COc1ccc(/C(O)=C2/C(=O)C(=O)N(Cc3cccnc3)C2c2ccncc2)cc1F", "note": "(stereo not drawn)", "activity change, negative = inhibition": "inactive: -22%"}
{"compound": "COc1ccc(OCCN2CCCC2)cc1Nc1nnc(Cl)c(Nc2ccccc2S(C)(=O)=O)n1", "Potency": "inconclusive: 70.8 µM [inhibitor, partial curve, poor fit]"}
{"compound": "COc1cc(CN2CCC(C(=O)NC3CCCC3)CC2)ccc1O", "Potency": "inconclusive: 1.26 µM [inhibitor, full curve, poor fit]"}
{"compound": "CCOc1cc(S(=O)(=O)Nc2ncn[nH]2)ccc1Br", "Potency": "inconclusive: 35.5 µM [inhibitor, partial curve]"}
{"compound": "CN=Cc1sc2ccccc2c1O", "activity change, negative = inhibition": "inactive: -22.6%"}
{"compound": "COc1ccc(-c2ccc3c(N)c(C(=O)c4ccc(OC)c(OC)c4)sc3n2)cc1", "Potency": "inconclusive: 89.1 µM [inhibitor, single point]"}
{"compound": "N#C/C(=C/c1ccccc1[N+](=O)[O-])c1nc(C2CC2)cs1", "Potency": "active: 89.1 µM"}
{"compound": "O=C1c2ccccc2-c2c1nc1c([n+]2[O-])CCCC1", "activity change, negative = inhibition": "inactive: 6.51%"}
{"compound": "COc1ccc(Nc2ccc3c(c2)=NC2(CCCCC2)[N+]=3[O-])cc1", "Potency": "active: 22.4 µM"}
{"compound": "COc1ccc(/C=C2\\Sc3ccc(C(=O)NCC4CCCO4)cc3N(C)C2=O)cc1", "note": "(stereo not drawn)", "Potency": "inconclusive: 50.1 µM [inhibitor, partial curve]"}
{"compound": "O=[N+]([O-])c1cccc(CN2CCC(Cc3ccccc3)CC2)c1", "Potency": "active: 1.58 µM"}
{"compound": "COc1cc2sc(-c3ccc(S(C)(=O)=O)cc3)c(C#CCO)c2cc1OC", "activity change, negative = inhibition": "inactive: -19.3%"}
{"compound": "CCN(CC)C(=S)NC(=O)c1cccnc1", "Potency": "inconclusive: 15.8 µM [inhibitor, partial curve]"}
{"compound": "O=C(NN=Cc1c(O)ccc2ccccc12)c1ccncc1", "Potency": "active: 79.4 µM"}
{"compound": "COc1ccc(CN2CCC3CC2c2cc(-c4cccc(C)c4)ccc23)cc1", "note": "(stereo not drawn)", "Potency": "inconclusive: 56.2 µM [inhibitor, partial curve, poor fit]"}
{"compound": "CCOC(=O)c1c(N)ssc1=S", "Potency": "inconclusive: 89.1 µM [inhibitor, partial curve]"}
{"compound": "Oc1[nH]c2ccc(Br)cc2c1N=NC(=S)N1CCOCC1", "Potency": "active: 17.8 µM"}
{"compound": "CCc1ccc(CNC(=O)c2cnc3sc(N4CCCC4)nn3c2=O)cc1", "Potency": "inconclusive: 89.1 µM [inhibitor, single point]"}
{"compound": "Cc1ccc(C(=O)Nc2ccc(O)cc2C(=O)O)cc1", "Potency": "inconclusive: 63.1 µM [inhibitor, partial curve, poor fit]"}
